Test results as given in the supplement of paper PMC3724861.
Some of the results follow.

tested on: T1, Caupolican (Caup) homeodomain DNA-binding domain; test: PBM E-score (8-mer, recovered from the published 9-mer minima) (E-score (dimensionless, -0.5 to 0.5)); Drosophila protein; higher = stronger relative binding preference, active = 0.31 or more
T1 sequence: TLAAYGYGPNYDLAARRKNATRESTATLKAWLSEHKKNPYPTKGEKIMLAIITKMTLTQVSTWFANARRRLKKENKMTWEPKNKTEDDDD
Outline: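 An enrichment score, with higher meaning stronger, expresses relative binding preference for each short DNA word. The protein used was Caup's homeodomain DNA-binding domain (residues 214-303), produced by in vitro transcription and translation and tested at 100 nM on custom-designed protein binding microarrays. The 8-mer values were recovered from published 9-mer scores, each equal to the lower of its two constituent 8-mer scores.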

| Sequence | PBM E-score |
| --- | --- |
| GTACGACA | inactive: 0.299 |
| GGATCACC | inactive: -0.0274 |
| CTTAATTC | inactive: 0.0179 |
| GACAGCGA | inactive: 0.00082 |
| CACAGATA | inactive: 0.102 |
| ACGCATTC | inactive: -0.0689 |
| ACTTCACG | inactive: 0.0234 |
| AGCGACGC | inactive: -0.129 |
| ACGATAGC | inactive: 0.0824 |
| AAACACCG | inactive: 0.108 |
| ACTTTAGA | inactive: -0.0192 |
| CAGTCTGC | inactive: -0.0163 |
| AGGGACAC | inactive: 0.149 |
| GGGGCTTA | inactive: -0.208 |
| GGACCATA | inactive: -0.0456 |
| GTGCGGAA | inactive: 0.0604 |
| GATTCAAC | inactive: -0.0523 |
| ATGACCAC | inactive: 0.0659 |
| AAAAGCAT | inactive: 0.1 |
| AATTCCGC | inactive: -0.0948 |
| GCCGGACA | inactive: 0.0438 |
| ACGTCGGG | inactive: -0.16 |
| TAATTCTA | inactive: 0.147 |
| GCGCTCGA | inactive: -0.107 |
| CTCCTGGA | inactive: -0.17 |

| Sequence | PBM E-score |
| --- | --- |
| ATCCAGTG | inactive: 0.0502 |
| CCGCGTTA | inactive: -0.054 |
| CTGAGACA | inactive: 0.0775 |
| TTAAGCAA | inactive: 0.0959 |
| AGTTTAAG | inactive: 0.00138 |
| CTCAGGAA | inactive: -0.0747 |
| GATTAGGA | inactive: 0.0485 |
| ACTCGCTC | inactive: -0.103 |
| ATAGGCAA | inactive: 0.0661 |
| ATGTTATA | active: 0.381 |
| AGGAACCT | ≥ -0.00983 |
| AGGATTCC | inactive: 0.00145 |
| CTAGATGC | inactive: 0.0316 |
| AGCTCTTA | inactive: -0.0232 |
| CCATCTCC | inactive: -0.145 |
| GGCCGCCA | inactive: -0.276 |
| GACTGTGA | inactive: -0.0131 |
| CGACTCGA | inactive: 0.00401 |
| AGGCTTAA | inactive: -0.0948 |
| AAATGAAA | ≥ 0.139 |
| CGTCGGAA | inactive: 0.00767 |
| GAGATGGA | inactive: -0.0584 |
| ACGAGGGA | ≥ -0.00203 |
| CGCAAAGC | inactive: -0.2 |
| CTCCGAAA | inactive: -0.0447 |

| Sequence | PBM E-score |
| --- | --- |
| ACCCATCT | inactive: -0.0651 |
| CCACTTGC | inactive: -0.0315 |
| GGTATGTA | inactive: 0.277 |
| ATCTCCGC | inactive: -0.173 |
| CAAGAACA | inactive: 0.187 |
| CCGTTGCG | inactive: -0.204 |
| CACACGTA | inactive: 0.142 |
| ATCCCTAA | inactive: -0.09 |
| CGGCCAAC | inactive: -0.141 |
| AAAGCCGC | inactive: -0.213 |
| GCAGCGGC | inactive: -0.252 |
| GAGTGTGA | inactive: 0.0709 |
| GAGAAACA | inactive: 0.151 |
| CGGAGGGA | inactive: -0.227 |
| CCTTGGAG | inactive: -0.193 |
| AACGATTG | inactive: 0.13 |
| ACCAGGTA | inactive: 0.02 |
| AAATTGGA | inactive: 0.133 |
| AGGTAGTG | inactive: -0.021 |
| ACCGTCCT | inactive: -0.0635 |
| CAATGAGA | inactive: 0.0493 |
| ACGGTTAT | inactive: 0.0448 |
| GTTTCTTA | inactive: 0.091 |
| CCCATCGC | inactive: -0.194 |
| AGTGGCCG | inactive: -0.226 |

| Sequence | PBM E-score |
| --- | --- |
| CGTGACCC | inactive: -0.102 |
| AGATCGAA | inactive: 0.0457 |
| GGCTGAAA | inactive: -0.0736 |
| CTCTCGCC | inactive: -0.229 |
| GCGGGAAA | inactive: -0.129 |
| GAATTACA | inactive: 0.29 |
| ATGTCGGA | inactive: 0.263 |
| CGTATTAG | inactive: 0.125 |
| TCTAGAGA | inactive: -0.0673 |
| CAGTGATC | inactive: 0.0398 |
| CCCTGAGG | inactive: -0.185 |
| CCATAATA | inactive: 0.114 |
| AGATAGTC | inactive: 0.0191 |
| AAAAGGTT | inactive: -0.0248 |
| ATTCATCC | inactive: 0.0789 |
| ATTATTAA | inactive: 0.191 |
| TGAAAAAA | inactive: 0.0242 |
| CACGCCGG | inactive: -0.125 |
| AGATAATG | inactive: 0.131 |
| CGTTTGCC | inactive: -0.0961 |
| ATGAGGAC | inactive: -0.0171 |
| GCCATCGC | inactive: -0.205 |
| TATACTGA | inactive: 0.172 |
| ACAAAGTG | inactive: 0.058 |
| CTCATAGA | inactive: 0.0135 |

| Sequence | PBM E-score |
| --- | --- |
| ACGCGCGG | inactive: -0.171 |
| ACAATCGA | inactive: 0.11 |
| CAACCGGG | inactive: -0.162 |
| TCGCCCAA | inactive: -0.147 |
| ATGAATAC | inactive: 0.144 |
| CACATGGA | inactive: 0.156 |
| TGATTCAA | ≥ 0.125 |
| AAGTGCAA | inactive: 0.0804 |
| TGTGATAA | inactive: 0.207 |
| GCTTGATA | inactive: 0.00938 |
| ACCAGCGC | inactive: -0.106 |
| ATGCACAA | inactive: 0.143 |
| AAACATGG | active: 0.321 |
| AGGGCAGC | inactive: -0.267 |
| GTTGTAAA | inactive: 0.279 |
| ATATGATG | inactive: 0.183 |
| TCCTAAGA | inactive: -0.0374 |
| CGTCGGTA | inactive: -0.0821 |
| AGTCACCC | inactive: -0.129 |
| GAATAAAA | inactive: 0.0346 |
| AATGAAGT | inactive: 0.0706 |
| TCAAATGA | inactive: 0.062 |
| ATATCGGG | inactive: -0.0323 |
| ACGGCGAG | inactive: -0.0783 |
| GGACTCTA | inactive: -0.0786 |

| Sequence | PBM E-score |
| --- | --- |
| ACCACGTG | inactive: 0.0775 |
| ACGTGTAG | active: 0.321 |
| GCATCCCC | inactive: -0.194 |
| GCATACAA | inactive: 0.247 |
| AACGGGAA | ≥ -0.00669 |
| CTGAAGTC | inactive: -0.0729 |
| ACTCTAAA | inactive: 0.0521 |
| CTACCGCA | inactive: -0.0468 |
| AAGAGGTG | inactive: -0.00252 |
| ATTAAGTC | inactive: 0.0731 |
| CATAATCG | inactive: 0.173 |
| ACTACTAG | inactive: 0.189 |
| AGGTATTA | inactive: 0.144 |
| TCGGCGAA | inactive: -0.135 |
| GCTTGCCA | inactive: -0.0848 |
| AGCGCGCT | inactive: -0.0892 |
| GCCCTGCC | inactive: -0.238 |
| CCCGGCAA | inactive: -0.137 |
| AGGTGAGG | inactive: -0.189 |
| CCGGCCGG | inactive: -0.301 |
| CAATACGC | inactive: -0.00448 |
| CTGAACGC | inactive: -0.106 |
| AGAAGTCC | inactive: -0.112 |
| GGTGACAA | inactive: 0.254 |
| TTCCTAAA | inactive: 0.035 |

| Sequence | PBM E-score |
| --- | --- |
| GCATCACC | inactive: -0.128 |
| ATATCCAT | inactive: 0.135 |
| AGATCTAT | ≥ 0.126 |
| AATTGGTC | inactive: 0.117 |
| CACGTCAA | inactive: 0.143 |
| CTCTTCCC | inactive: -0.0949 |
| CAGGAACC | inactive: -0.0573 |
| AGCGTGAC | inactive: 0.0217 |
| ATACTGGG | inactive: -0.00669 |
| AACTAGTC | inactive: 0.197 |
| AACGATCG | inactive: 0.0403 |
| ACCCAAGT | ≥ 0.0182 |
| AGGAGGAA | inactive: -0.0242 |
| AACCACCT | inactive: -0.0101 |
| CGCTGGTA | inactive: 0.0151 |
| ACGCCATG | inactive: 0.0924 |
| AAGCTTGG | inactive: -0.099 |
| ACGTCAAA | ≥ 0.143 |
| CACCCTTA | inactive: -0.0688 |
| GTATGATA | inactive: 0.242 |
| GCCAGGCA | inactive: -0.208 |
| GACGTACC | inactive: -0.0787 |
| ACGCTAGG | inactive: -0.174 |
| CTTTCGTA | inactive: -0.00453 |
| CGGTCCAG | inactive: -0.162 |

| Sequence | PBM E-score |
| --- | --- |
| AACAACGC | inactive: 0.182 |
| ATATATGA | inactive: 0.252 |
| AGCCTAAT | inactive: 0.0704 |
| AATATTAA | inactive: 0.153 |
| CCCTTACC | inactive: -0.0569 |
| ACGAACCG | inactive: -0.0561 |
| AGTGCTGA | inactive: 0.0135 |
| ACGGCGGC | inactive: -0.283 |
| ATTAAAGG | inactive: -0.0169 |
| AGCTCTTG | inactive: 0.00429 |
| ATTTCCAC | inactive: 0.0863 |
| CGGGTACC | inactive: -0.0645 |
| ATCCGTCC | inactive: -0.0336 |
| GAAACTTC | inactive: -0.0761 |
| AATAACTC | inactive: 0.0581 |
| AATAGTTC | inactive: 0.151 |
| ACCGGTGC | inactive: -0.201 |
| GCATTGCC | inactive: -0.0319 |
| CGCGGAAG | inactive: -0.201 |
| GGAACGTA | inactive: -0.054 |
| GGATCCAA | inactive: 0.00972 |
| AAGTATCG | inactive: 0.134 |
| CCCAGCCC | inactive: -0.288 |
| CCGCTAAA | inactive: -0.0666 |
| CATGATGA | inactive: 0.194 |

| Sequence | PBM E-score |
| --- | --- |
| TACGCGAA | inactive: 0.0654 |
| AGCATGTG | inactive: 0.222 |
| TTGCACAA | ≥ 0.182 |
| CGATCATC | inactive: 0.0443 |
| AGGCTAGG | inactive: -0.17 |
| CCTTAGGA | inactive: -0.109 |
| AATCCAGT | inactive: 0.0433 |
| CAACAGGC | inactive: -0.0073 |
| CGGAGGAA | inactive: -0.0918 |
| TGGCAACA | ≥ 0.153 |
| ATTGTATA | inactive: 0.259 |
| AAGGGGGA | inactive: -0.203 |
| AGGTCTTG | inactive: -0.0443 |
| TAGCTCAA | inactive: -0.087 |
| TACCGTCA | inactive: -0.117 |
| AAAGTTGC | inactive: -0.0584 |
| CCTGGCGA | inactive: -0.165 |
| ACCGTTTG | inactive: -0.0923 |
| AGGGGTCC | inactive: -0.228 |
| AGGGCCCC | inactive: -0.248 |
| CGCCCAGA | inactive: -0.192 |
| TGAGCGCA | inactive: -0.0868 |
| GGCTTAAA | inactive: -0.0788 |
| GCACTCAC | inactive: -0.0914 |
